PubChem BioAssay AID1346428 (National Center for Advancing Translational Sciences (NCATS), 2018)
About 1,200 (2.5%) of roughly 48,000 compounds were called active. Roughly 2% stayed inconclusive and do not appear here.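 How the source made its calls: active means activation of at least 60% and not above a set upper limit (about 1 call in 100 departs from these limits); inconclusive means activation of 40% to 60%, or above that upper limit; inactive means activation under 40%.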 The list shows a part of the results.

These compounds were tested against Probable G-protein coupled receptor 32 (Homo sapiens) (UniProt O75388) (assay: qHTS for Agonists of Human Resolvin D1 Receptor DRV1). Settings: CHO-K1 GPR32 beta-arrestin PathHunter luminescence, 90 min; at 76.9 µM; active compounds read high; zero percent set by DMSO-only wells.
Procedure, shortened: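 GPR32 activation in stably transfected CHO-K1 cells, detected as beta-arrestin recruitment by enzyme-fragment complementation. Compound exposure: 90 min, 37 °C.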
Further: 0% is about no effect.

UniProt O75388, sequence (O75388 whole entry, looked up, the tested form may be a part): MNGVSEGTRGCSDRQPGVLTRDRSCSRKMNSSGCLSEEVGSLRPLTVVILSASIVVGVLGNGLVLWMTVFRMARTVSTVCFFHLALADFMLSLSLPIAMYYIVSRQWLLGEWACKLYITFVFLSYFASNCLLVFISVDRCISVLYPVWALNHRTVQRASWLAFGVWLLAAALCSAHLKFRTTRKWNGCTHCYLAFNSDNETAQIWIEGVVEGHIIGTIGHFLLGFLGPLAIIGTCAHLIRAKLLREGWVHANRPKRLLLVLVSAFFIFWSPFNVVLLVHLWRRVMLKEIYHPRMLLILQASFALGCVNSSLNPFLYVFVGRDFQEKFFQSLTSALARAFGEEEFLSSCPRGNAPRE

activation, inactive:
O=C(CSc1n[nH]c(-c2ccc(F)cc2)n1)N1CCN(c2ccc(F)cc2)CC1 -4%
CCOC(=O)c1cc(S(=O)(=O)Nc2ccccc2)[nH]n1 2.31%
CCC(C)NC(=O)c1c2c(nc3ccccc13)C(=O)N(C1CCCCC1)C2 (stereo not drawn) 8.41%
COc1ccc(C(=O)Nc2ccc3oc(-c4cccc5c(Br)cccc45)nc3c2)cc1 46.8%
CCN1CCc2c(sc(NC(=O)c3ccc(S(=O)(=O)N4CCCC(C)C4)cc3)c2C(=O)OC)C1 (stereo not drawn) 13.8%
O=C(CNC(=O)c1ccc(F)cc1)OCc1cc(=O)n2ccsc2n1 0%
O=S1(=O)c2ccccc2N(Cc2ccccc2F)c2ccccc21 -13.3%
CCCCN(C)C(=O)c1ccc2c(=O)n3nc(Nc4cc(C)ccc4C)sc3nc2c1 0.396%
Cc1ccccc1Cn1c(CN2CCC(C(=O)NCc3ccc(Cl)cc3)CC2)cc2ccccc21 -27.1%
Cc1c(Cl)cccc1NC(=O)C(=O)NCCc1csc(-c2ccc(C(F)(F)F)cc2)n1 -0.872%
O=C(NCc1ccc2c(c1)OCO2)c1ccc2c(c1)N(Cc1c(F)cccc1Cl)C(=O)c1ccccc1S2 -14.8%
Cc1cc(C)c(OCC(=O)N(Cc2ccc(N(C)C)cc2)Cc2ccco2)c(C)c1 -17.6%
COc1ccc(CCNC(=O)c2ccc(-n3c(C)cc4c3CCC(C)C4)cc2)cc1OC (stereo not drawn) -7.04%
COC(=O)c1ccccc1NC(=O)Cn1c(=O)n(CCC(=O)NCc2ccc3c(c2)OCO3)c(=O)c2ccccc21 -6.05%
COc1ccc(C(=O)c2cn(CC(=O)Nc3cc(OC)cc(OC)c3)c3ccc(OC)cc3c2=O)cc1 6.04%
Cc1ccc(Cn2nc3n(c2=O)-c2cc(Cl)ccc2OC3)cc1 19%
COc1ccc(-n2c(-c3cccc(F)c3)nc3c(cnn3-c3ccc(C)cc3)c2=O)cc1 14.3%
Cc1ccc(-c2csc(-c3c(N)c(C(=O)c4ccc5c(c4)OCO5)n4ccccc34)n2)cc1 13.5%
Cc1ccc(-c2cn3nc(N4CCCC(C(=O)NCc5ccccc5F)C4)sc3n2)cc1 (stereo not drawn) -27.8%
CC1=C(C(=O)OC2CCCC2)C(c2c(F)cccc2Cl)CC(=O)N1 (stereo not drawn) 28.7%
CCOC(=O)c1c(S(=O)(=O)N2CCC(C(=O)NCc3cccc(OC)c3)CC2)c(C)n(C)c1C 1.53%

activation, active:
Cc1cc(C)cc(NC(=O)COc2cccc3c(=O)n(C)ccc23)c1 85.6%
CCOc1ccc(NS(=O)(=O)c2ccc3c(c2)NC(=O)CCS3)cc1 74.7%
